Common to all, as to experiment: cell-based or functional assay
For one test, the target named is human TrkB receptor (human, UniProt Q16620 32-822).
The next test has as its target rat TrkB receptor (rat, UniProt Q63604 32-821).
Another test addresses T1, human VEGF-A (human, UniProt P15692-4 27-191).
T1 sequence (looked up): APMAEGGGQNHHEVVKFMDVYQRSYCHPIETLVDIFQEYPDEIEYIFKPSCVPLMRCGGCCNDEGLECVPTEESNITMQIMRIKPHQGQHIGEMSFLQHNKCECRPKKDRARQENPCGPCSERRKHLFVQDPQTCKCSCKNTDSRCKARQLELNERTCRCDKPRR

Sequence of human TrkB receptor (Q16620 32-822): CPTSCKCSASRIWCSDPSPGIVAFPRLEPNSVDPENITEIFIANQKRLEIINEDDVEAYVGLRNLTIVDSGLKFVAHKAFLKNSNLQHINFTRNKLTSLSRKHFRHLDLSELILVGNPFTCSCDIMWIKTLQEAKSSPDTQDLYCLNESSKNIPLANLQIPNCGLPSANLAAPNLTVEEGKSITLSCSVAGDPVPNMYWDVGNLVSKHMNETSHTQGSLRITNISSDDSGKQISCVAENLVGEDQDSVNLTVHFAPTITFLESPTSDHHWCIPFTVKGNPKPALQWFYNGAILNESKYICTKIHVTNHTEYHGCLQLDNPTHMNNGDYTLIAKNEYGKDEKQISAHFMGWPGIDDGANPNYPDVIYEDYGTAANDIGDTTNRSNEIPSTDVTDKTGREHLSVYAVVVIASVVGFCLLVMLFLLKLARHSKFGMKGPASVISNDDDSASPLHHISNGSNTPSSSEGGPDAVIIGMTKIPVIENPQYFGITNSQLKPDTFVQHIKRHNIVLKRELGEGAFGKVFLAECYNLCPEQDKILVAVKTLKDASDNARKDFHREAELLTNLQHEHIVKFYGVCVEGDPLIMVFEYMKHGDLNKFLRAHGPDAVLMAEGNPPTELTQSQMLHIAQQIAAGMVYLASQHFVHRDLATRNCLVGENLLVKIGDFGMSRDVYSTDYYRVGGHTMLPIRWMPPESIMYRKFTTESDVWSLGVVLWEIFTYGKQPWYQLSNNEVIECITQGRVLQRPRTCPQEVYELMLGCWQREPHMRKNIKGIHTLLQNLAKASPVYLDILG
Sequence of rat TrkB receptor (Q63604 32-821): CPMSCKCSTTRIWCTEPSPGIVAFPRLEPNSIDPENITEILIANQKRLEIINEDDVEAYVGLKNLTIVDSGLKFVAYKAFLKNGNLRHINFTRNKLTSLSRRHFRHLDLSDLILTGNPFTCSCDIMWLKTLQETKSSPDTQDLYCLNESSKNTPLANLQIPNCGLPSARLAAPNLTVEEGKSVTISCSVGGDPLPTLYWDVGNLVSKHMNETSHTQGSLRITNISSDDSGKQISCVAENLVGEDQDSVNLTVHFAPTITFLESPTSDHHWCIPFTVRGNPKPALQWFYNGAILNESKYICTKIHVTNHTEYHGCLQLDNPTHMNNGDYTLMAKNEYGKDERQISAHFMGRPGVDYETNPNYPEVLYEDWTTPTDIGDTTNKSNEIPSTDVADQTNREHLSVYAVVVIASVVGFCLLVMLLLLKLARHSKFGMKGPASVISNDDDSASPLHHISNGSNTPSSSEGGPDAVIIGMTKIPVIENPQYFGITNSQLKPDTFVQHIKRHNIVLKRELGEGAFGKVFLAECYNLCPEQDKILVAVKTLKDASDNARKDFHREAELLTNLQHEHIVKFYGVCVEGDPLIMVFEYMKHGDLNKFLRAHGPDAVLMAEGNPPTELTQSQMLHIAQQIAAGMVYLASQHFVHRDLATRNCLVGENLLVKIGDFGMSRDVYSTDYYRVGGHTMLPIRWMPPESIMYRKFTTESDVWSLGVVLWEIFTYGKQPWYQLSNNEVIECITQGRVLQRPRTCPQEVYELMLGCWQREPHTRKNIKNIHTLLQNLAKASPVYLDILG

B1: TPP-22180 (bispecific antibody, human IgG1, kappa)
heavy: QVQLVQSGGGLVQPGGSLRLSCAASGYDFTHYGMNWVRQAPGKGLEWVGWINTYTGEPTYAADFKRRFTFSLDTSKSTAYLQMNSLRAEDTAVYYCAKYPYYYGTSHWYFDVWGQGTLVTVSSASTKGPSVFPLAPSSKSTSGGTAALGCLVKDYFPEPVTVSWNSGALTSGVHTFPAVLQSSGLYSLSSVVTVPSSSLGTQTYICNVNHKPSNTKVDKRV[in this place human IgG1 Fc with changes]GGGGSGGGGSQVQLVQSGAEVKKPGASVKVSCKASGYTFTNYDIIWVRQAPGQGLEWMGYINPYNDGTKYNEKFKGRVTMTRDTSTSTVYMELSSLRSEDTAVYYCARLLKYRRFRYYAIDYWGQGTTVTVSSGGSEGKSSGSGSESKSTGGSDIQMTQSPSSLSASVGDRVTITCRTSENVYSNLAWYQQKPGKAPKLLIYAASNLQSGVPSRFSGSGSGTDYTFTISSLQPEDIATYYCQHFWGSPFTFGQGTKLEIK
light: DIQLTQSPSSLSASVGDRVTITCSASQDISNYLNWYQQKPGKAPKVLIYFTSSLHSGVPSRFSGSGSGTGFTLTISSLQPEDFATYYCQQYSTVPWTFGQGTKVEIKRTVAAPSVFIFPPSDEQLKSGTASVVCLLNNFYPREAKVQWKVDNALQSGNSQESVTEQDSKDSTYSLSSTLTLSKADYEKHKVYACEVTHQGLSSPVTKSFNRGEC
As to B1, in the test with human TrkB receptor, the “TrkB-phosphorylation efficacy (AlphaLISA counts)” value came to 6640 AlphaLISA counts; the “TrkB-phosphorylation efficacy relative to parental clone without CC bridge (%)” value came out at 100%; the “TrkB-phosphorylation potency (EC50, nM)” value was 8.09 nM. In addition, in the test with rat TrkB receptor, the “TrkB-phosphorylation efficacy (AlphaLISA counts)” value is 19700 AlphaLISA counts; the “TrkB-phosphorylation efficacy relative to parental clone without CC bridge (%)” value amounted to 100%; the “TrkB-phosphorylation potency (EC50, nM)” value was 4.21 nM.

B2: TPP-22190 (bispecific antibody, human IgG1, kappa)
heavy: QVQLVESGGGLVQPGGSLRLSCAASGYDFTHYGMNWVRQAPGKGLEWVGWINTYTGEPTYAADFKRRFTFSLDTSKSTAYLQMNSLRAEDTAVYYCAKYPYYYGTSHWYFDVWGQGTLVTVSSASTKGPSVFPLAPSSKSTSGGTAALGCLVKDYFPEPVTVSWNSGALTSGVHTFPAVLQSSGLYSLSSVVTVPSSSLGTQTYICNVNHKPSNTKVDKRV[in this place human IgG1 Fc with changes]GGGGSGGGGSDIQMTQSPSSLSASVGDRVTITCRTSENVYSNLAWYQQKPGKAPKLLIYAASNLQSGVPSRFSGSGSGTDYTFTISSLQPEDIATYYCQHFWGSPFTFGQGTKLEIKGGSEGKSSGSGSESKSTGGSQVQLVQSGAEVKKPGASVKVSCKASGYTFTNYDIIWVRQAPGQGLEWMGYINPYNDGTKYNEKFKGRVTMTRDTSTSTVYMELSSLRSEDTAVYYCARLLKYRRFRYYAIDYWGQGTTVTVSS
light: DIQLTQSPSSLSASVGDRVTITCSASQDISNYLNWYQQKPGKAPKVLIYFTSSLHSGVPSRFSGSGSGTGFTLTISSLQPEDFATYYCQQYSTVPWTFGQGTKVEIKRTVAAPSVFIFPPSDEQLKSGTASVVCLLNNFYPREAKVQWKVDNALQSGNSQESVTEQDSKDSTYSLSSTLTLSKADYEKHKVYACEVTHQGLSSPVTKSFNRGEC
Regarding B2, in the test with human TrkB receptor, the “TrkB-phosphorylation efficacy (AlphaLISA counts)” value is 4220 AlphaLISA counts; the “TrkB-phosphorylation efficacy relative to parental clone without CC bridge (%)” value came to 100%; the “TrkB-phosphorylation potency (EC50, nM)” value was 9.95 nM.

B3: TPP-22192 (bispecific antibody, human IgG1, kappa)
heavy: QVQLVQSGGGLVQPGGSLRLSCAASGYDFTHYGMNWVRQAPGKGLEWVGWINTYTGEPTYAADFKRRFTFSLDTSKSTAYLQMNSLRAEDTAVYYCAKYPYYYGTSHWYFDVWGQGTLVTVSSASTKGPSVFPLAPSSKSTSGGTAALGCLVKDYFPEPVTVSWNSGALTSGVHTFPAVLQSSGLYSLSSVVTVPSSSLGTQTYICNVNHKPSNTKVDKRV[in this place human IgG1 Fc with changes]GGGGSGGGGSDIQMTQSPSSLSASVGDRVTITCRTSENVYSNLAWYQQKPGKAPKLLIYAASNLQSGVPSRFSGSGSGTDYTFTISSLQPEDIATYYCQHFWGSPFTFGQGTKLEIKGGSEGKSSGSGSESKSTGGSQVQLVQSGAEVKKPGASVKVSCKASGYTFTNYDIIWVRQAPGQGLEWMGYINPYNDGTKYNEKFKGRVTMTRDTSTSTVYMELSSLRSEDTAVYYCARLLKYRRFRYYAIDYWGQGTTVTVSS
light: DIQLTQSPSSLSASVGDRVTITCSASQDISNYLNWYQQKPGKAPKVLIYFTSSLHSGVPSRFSGSGSGTGFTLTISSLQPEDFATYYCQQYSTVPWTFGQGTKVEIKRTVAAPSVFIFPPSDEQLKSGTASVVCLLNNFYPREAKVQWKVDNALQSGNSQESVTEQDSKDSTYSLSSTLTLSKADYEKHKVYACEVTHQGLSSPVTKSFNRGEC
B3: in the test with human TrkB receptor, the “TrkB-phosphorylation efficacy (AlphaLISA counts)” value is 5640 AlphaLISA counts; the “TrkB-phosphorylation efficacy relative to parental clone without CC bridge (%)” value was determined as 100%; the “TrkB-phosphorylation potency (EC50, nM)” value was 12.2 nM. In addition, in the test with rat TrkB receptor, the “TrkB-phosphorylation efficacy (AlphaLISA counts)” value was 21200 AlphaLISA counts; the “TrkB-phosphorylation efficacy relative to parental clone without CC bridge (%)” value came out at 100%; the “TrkB-phosphorylation potency (EC50, nM)” value came to 18.9 nM.

B4: TPP-22191 (bispecific antibody, human IgG1, kappa)
heavy: EVQLVQSGGGLVQPGGSLRLSCAASGYDFTHYGMNWVRQAPGKGLEWVGWINTYTGEPTYAADFKRRFTFSLDTSKSTAYLQMNSLRAEDTAVYYCAKYPYYYGTSHWYFDVWGQGTLVTVSSASTKGPSVFPLAPSSKSTSGGTAALGCLVKDYFPEPVTVSWNSGALTSGVHTFPAVLQSSGLYSLSSVVTVPSSSLGTQTYICNVNHKPSNTKVDKRV[in this place human IgG1 Fc with changes]GGGGSGGGGSDIQMTQSPSSLSASVGDRVTITCRTSENVYSNLAWYQQKPGKAPKLLIYAASNLQSGVPSRFSGSGSGTDYTFTISSLQPEDIATYYCQHFWGSPFTFGQGTKLEIKGGSEGKSSGSGSESKSTGGSQVQLVQSGAEVKKPGASVKVSCKASGYTFTNYDIIWVRQAPGQGLEWMGYINPYNDGTKYNEKFKGRVTMTRDTSTSTVYMELSSLRSEDTAVYYCARLLKYRRFRYYAIDYWGQGTTVTVSS
light: DIQLTQSPSSLSASVGDRVTITCSASQDISNYLNWYQQKPGKAPKVLIYFTSSLHSGVPSRFSGSGSGTGFTLTISSLQPEDFATYYCQQYSTVPWTFGQGTKVEIKRTVAAPSVFIFPPSDEQLKSGTASVVCLLNNFYPREAKVQWKVDNALQSGNSQESVTEQDSKDSTYSLSSTLTLSKADYEKHKVYACEVTHQGLSSPVTKSFNRGEC
With B4, in the test with human TrkB receptor, the “TrkB-phosphorylation efficacy (AlphaLISA counts)” value was determined as 4850 AlphaLISA counts; the “TrkB-phosphorylation efficacy relative to parental clone without CC bridge (%)” value was 100%; the “TrkB-phosphorylation potency (EC50, nM)” value was 5.49 nM.

B5: TPP-22215 (bispecific antibody, human IgG1, kappa)
heavy: EVQLVQSGGGLVQPGGSLRLSCAASGYDFTHYGMNWVRQAPGKGLEWVGWINTYTGEPTYAADFKRRFTFSLDTSKSTAYLQMNSLRAEDTAVYYCAKYPYYYGTSHWYFDVWGQGTLVTVSSASTKGPSVFPLAPSSKSTSGGTAALGCLVKDYFPEPVTVSWNSGALTSGVHTFPAVLQSSGLYSLSSVVTVPSSSLGTQTYICNVNHKPSNTKVDKRV[in this place human IgG1 Fc with changes]GGGGSGGGGSDIQMTQSPSSLSASVGDRVTITCRTSENVYSNLAWYQQKPGKAPKLLIYAASNLQSGVPSRFSGSGSGTDYTFTISSLQPEDIATYYCQHFWGSPFTFGCGTKLEIKGGSEGKSSGSGSESKSTGGSQVQLVQSGAEVKKPGASVKVSCKASGYTFTNYDIIWVRQAPGQCLEWMGYINPYNDGTKYNEKFKGRVTMTRDTSTSTVYMELSSLRSEDTAVYYCARLLKYRRFRYYAIDYWGQGTTVTVSS
light: DIQLTQSPSSLSASVGDRVTITCSASQDISNYLNWYQQKPGKAPKVLIYFTSSLHSGVPSRFSGSGSGTGFTLTISSLQPEDFATYYCQQYSTVPWTFGQGTKVEIKRTVAAPSVFIFPPSDEQLKSGTASVVCLLNNFYPREAKVQWKVDNALQSGNSQESVTEQDSKDSTYSLSSTLTLSKADYEKHKVYACEVTHQGLSSPVTKSFNRGEC
Consider B5, for which, in the test with human TrkB receptor, the “TrkB-phosphorylation efficacy (AlphaLISA counts)” value amounted to 5790 AlphaLISA counts; the “TrkB-phosphorylation efficacy relative to parental clone without CC bridge (%)” value is 119%; the “TrkB-phosphorylation potency (EC50, nM)” value is 1.12 nM.

B6: TPP-22204 (bispecific antibody, human IgG1, kappa)
heavy: QVQLVQSGGGLVQPGGSLRLSCAASGYDFTHYGMNWVRQAPGKGLEWVGWINTYTGEPTYAADFKRRFTFSLDTSKSTAYLQMNSLRAEDTAVYYCAKYPYYYGTSHWYFDVWGQGTLVTVSSASTKGPSVFPLAPSSKSTSGGTAALGCLVKDYFPEPVTVSWNSGALTSGVHTFPAVLQSSGLYSLSSVVTVPSSSLGTQTYICNVNHKPSNTKVDKRV[in this place human IgG1 Fc with changes]GGGGSGGGGSQVQLVQSGAEVKKPGASVKVSCKASGYTFTNYDIIWVRQAPGQCLEWMGYINPYNDGTKYNEKFKGRVTMTRDTSTSTVYMELSSLRSEDTAVYYCARLLKYRRFRYYAIDYWGQGTTVTVSSGGSEGKSSGSGSESKSTGGSDIQMTQSPSSLSASVGDRVTITCRTSENVYSNLAWYQQKPGKAPKLLIYAASNLQSGVPSRFSGSGSGTDYTFTISSLQPEDIATYYCQHFWGSPFTFGCGTKLEIK
light: DIQLTQSPSSLSASVGDRVTITCSASQDISNYLNWYQQKPGKAPKVLIYFTSSLHSGVPSRFSGSGSGTGFTLTISSLQPEDFATYYCQQYSTVPWTFGQGTKVEIKRTVAAPSVFIFPPSDEQLKSGTASVVCLLNNFYPREAKVQWKVDNALQSGNSQESVTEQDSKDSTYSLSSTLTLSKADYEKHKVYACEVTHQGLSSPVTKSFNRGEC
In the case of B6, the “concentration for full inhibition of VEGF-induced HRMEC proliferation” value in the test with human VEGF-A came out at 0.25 nM. Also, in the test with human TrkB receptor, the “TrkB-phosphorylation efficacy (AlphaLISA counts)” value came out at 7610 AlphaLISA counts; the “TrkB-phosphorylation efficacy relative to parental clone without CC bridge (%)” value turned out to be 115%; the “TrkB-phosphorylation potency (EC50, nM)” value amounted to 3.88 nM. In addition, in the test with rat TrkB receptor, the “TrkB-phosphorylation efficacy (AlphaLISA counts)” value stood at 21800 AlphaLISA counts; the “TrkB-phosphorylation efficacy relative to parental clone without CC bridge (%)” value came out at 111%; the “TrkB-phosphorylation potency (EC50, nM)” value turned out to be 2.01 nM.
